The list shows a part of the results. The list includes weakly bound sequences.

In this test the target is MaxL homodimer (UniProt P61244). The test can be described thus: universal protein-binding microarray (PBM). The note with it: PBS-based mixture, 10 nM His-tagged protein dimer, 2% milk, 200 ng/uL BSA, 50 ng/uL salmon testes DNA, 0.02% TX-100; detection with Alexa 488 anti-His …; high values mean tight binding; most listed sequences are background and not binding sites; double strand, one strand shown.
Sequence of UniProt P61244 (P61244 whole entry): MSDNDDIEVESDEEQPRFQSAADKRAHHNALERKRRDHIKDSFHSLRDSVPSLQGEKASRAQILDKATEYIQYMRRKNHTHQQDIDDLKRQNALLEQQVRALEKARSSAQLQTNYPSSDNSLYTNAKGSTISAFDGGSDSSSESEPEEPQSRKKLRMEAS
GGGGGAGA: the binding signal (normalized occupancy) came out at 0.0754. In the case of AGCAAGTC, the binding signal (normalized occupancy) is 0.0699.

For AAGCGTTC, the binding signal (normalized occupancy) worked out at 0.0728. Take CGAGATCC: the binding signal (normalized occupancy) is 0.0744. For GGGCTAAC, the binding signal (normalized occupancy) is 0.0672.

As to CCGGAAAA, the binding signal (normalized occupancy) was 0.0683.

On to ACGTAACC, for which the binding signal (normalized occupancy) was found to be 0.0727. The result for GCCTTCGA reads 0.0686. As to AGTAACGC, the binding signal (normalized occupancy) was 0.0764. With AGGGGTCG the figure was 0.0779. The result for GAGTATCA reads 0.0776; that for CGCTAGGA, 0.0709; that for GAAGGTTA, 0.0687. For CAAGCTGA, the binding signal (normalized occupancy) came out at 0.0702. As for ATGCTAGG, the binding signal (normalized occupancy) turned out to be 0.0765. On to AATACCAC, for which the binding signal (normalized occupancy) came out at 0.0839. As to GTCACCAA, the binding signal (normalized occupancy) amounted to 0.0774. For the sequence CTAAGATA, the binding signal (normalized occupancy) was found to be 0.0748. As to CGGAAACA, the binding signal (normalized occupancy) was 0.0731. For the sequence ATCTACAC, the binding signal (normalized occupancy) was determined as 0.082. Regarding GCACGGGA, the binding signal (normalized occupancy) was 0.0842. Take ACGGTCTA: the binding signal (normalized occupancy) worked out at 0.075. CGTAAAAC: the binding signal (normalized occupancy) worked out at 0.0743.

With AATCTAGT, the binding signal (normalized occupancy) amounted to 0.0739. Consider AGGCCCTG, for which the binding signal (normalized occupancy) turned out to be 0.072. In the case of AGCTTCGA, the binding signal (normalized occupancy) came out at 0.0672. With ACGACCCG the figure was 0.0732; with AGGCACCA, 0.0768. The result for CCTGTGCA reads 0.0816; that for CAACGTCC, 0.0732; that for CTACTCTA, 0.0742. Consider CACACATA, for which the binding signal (normalized occupancy) turned out to be 0.0896. As for AAAAATCG, the binding signal (normalized occupancy) turned out to be 0.0693. Take CTCGATGA: the binding signal (normalized occupancy) amounted to 0.0797.

For CACTGAGC, the binding signal (normalized occupancy) was 0.0724. ATAGCGGC: the binding signal (normalized occupancy) was found to be 0.0744.

AAAAACCA: the binding signal (normalized occupancy) worked out at 0.0806. With CAGCCACA, the binding signal (normalized occupancy) turned out to be 0.0725. As to ATAATCTC, the binding signal (normalized occupancy) came to 0.0801. With CTCGCTTA the figure was 0.073; with AATAGTGA, 0.0748; with ACTCAAGC, 0.0729. With ATGTGCCA, the binding signal (normalized occupancy) was found to be 0.0923. Consider ATGTTCCC, for which the binding signal (normalized occupancy) amounted to 0.0863. For ACACGGCA, the binding signal (normalized occupancy) was determined as 0.0781. ATCGGAAC: the binding signal (normalized occupancy) turned out to be 0.0699. For AACCCTGT, the binding signal (normalized occupancy) was 0.0728. On to GGCGTGTA, for which the binding signal (normalized occupancy) turned out to be 0.0895. With CGCTGAAG, the binding signal (normalized occupancy) worked out at 0.0697. For the sequence AAAGCCGT, the binding signal (normalized occupancy) was 0.068.

Consider CCTTACGC, for which the binding signal (normalized occupancy) was 0.0734. With CGAAACCA, the binding signal (normalized occupancy) was found to be 0.0791.

As to CGGGCGCA, the binding signal (normalized occupancy) came out at 0.0655. Regarding GTTAGAGA, the binding signal (normalized occupancy) amounted to 0.0753. As for AAAGGCCA, the binding signal (normalized occupancy) was 0.0803. Take CATTTGTA: the binding signal (normalized occupancy) is 0.0834. ACATGGGC: the binding signal (normalized occupancy) is 0.0848.

Regarding ACAACATG, the binding signal (normalized occupancy) was 0.0952.

For AAGAAACG, the binding signal (normalized occupancy) stood at 0.0781. The result for TACAGTGA reads 0.0778; that for GGAATTCA, 0.0721; that for TCCTACCA, 0.0734. Regarding GTTCTTGA, the binding signal (normalized occupancy) is 0.0755.

As to TCAGTACA, the binding signal (normalized occupancy) is 0.0794. ATCTCAAG: the binding signal (normalized occupancy) was 0.0719. As for CCCAAATC, the binding signal (normalized occupancy) amounted to 0.0732.

In the case of ACCAGCCT, the binding signal (normalized occupancy) came out at 0.0723. On to CCCGGCAG, for which the binding signal (normalized occupancy) came out at 0.0676.

As to CCCTCAGG, the binding signal (normalized occupancy) amounted to 0.0699. With AGATCAGG the figure was 0.0763. On to GTTATACA, for which the binding signal (normalized occupancy) is 0.0889. For the sequence CAAATTGA, the binding signal (normalized occupancy) came out at 0.0747. Regarding CAAGGCAG, the binding signal (normalized occupancy) was 0.0762. The result for ACTACCGA reads 0.0753. With AGGCTCAG the figure was 0.0713; with ATTTTACC, 0.0827; with GCTCGTTA, 0.0725. Regarding CGCCGTAG, the binding signal (normalized occupancy) was found to be 0.0688.

As to CCGGACCA, the binding signal (normalized occupancy) turned out to be 0.0766. With GGGCGAAC the figure was 0.0744. The result for GCATAAGC reads 0.0761; that for ATTTTCGC, 0.071. As for GACTGAAC, the binding signal (normalized occupancy) is 0.071.

Turning to CGCGCAGA, the binding signal (normalized occupancy) worked out at 0.0714. With AAAGGTAC, the binding signal (normalized occupancy) was determined as 0.0713. As to GCTCGACC, the binding signal (normalized occupancy) worked out at 0.0677. With AACTATTA, the binding signal (normalized occupancy) turned out to be 0.076. For TCAACTGA, the binding signal (normalized occupancy) was 0.0743. The result for CTGTGCTC reads 0.0735. For ACAGTAGG, the binding signal (normalized occupancy) stood at 0.0754. With ACATCTAA the figure was 0.0817.

As to AGACCAAT, the binding signal (normalized occupancy) is 0.0706.

Turning to AGGTTCCC, the binding signal (normalized occupancy) worked out at 0.0714. For the sequence CTAAGTCA, the binding signal (normalized occupancy) was 0.0739.

(Values after article PMC4242493.)
